“And” between values parts separate entries of the source, which are not always exact repeats. Equal entries are not always repeated. Inconclusive results, whose numbers are uncertain, are shown with a selection of clear calls. Potencies beside an inconclusive call are fits to weak or partial responses and may not hold up. Where a structure was tested more than once in an assay, its records may differ in their call. The source made the active and inactive calls. Unless noted, calls follow the shape of the dose curve; as a rule, active = well fitted curve in the direction sought with a large enough effect in the repeat runs; inconclusive = weak or mixed curves; inactive = no such curve, though single readings can be large; an effect the other way counts as inactive or inconclusive. *1 amine or outer side, *2 acyl side, *3 side chain or, on linkers, in order; H or OH if unused. Where a SMILES comes first, the peptide text is derived from it. Bridges are numbered along the chain shown (N, C = ends). Roman numbers before positions name the chains, in order. [ ]: non-standard residue; d: D form. Actinocin(9to1) = Cc1c2oc3c(C)ccc(C(=O)[*:1])c3nc-2c(C(=O)[*:2])c(N)c1=O; NMeV = CN[C@H](C(=O)O)C(C)C; Sar = CNCC(=O)O
What was measured:
[1] = qHTS assay to identify small molecule antagonists of the androgen receptor (AR) signaling pathway using the MDA cell line in the presence of 0.5 nM R1881 - cell viability counter screen (AID 1259242); also: nearly all actives have a fitted effect of over 45% in size
Summary of the method: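 Live-cell protease activity was measured by CellTiter-Fluor fluorescence after 30 min. Before that, MDA-kb2 MMTV-luciferase cells had 16 hr at 37C without CO2, exposed to test compounds and 0.5 nM R1881 final.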

[2] = qHTS assay to identify small molecule antagonists of the sonic hedgehog signaling (Shh) pathway (AID 1259369; calls by dose curve; also: nearly all actives have a fitted effect of over 45% in size)
Summary of the method: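 Antagonist mode: compound added to 3T3 Gli1-Luc cells followed by conditioned-medium stimulation, 24 h at 37 C, 5% CO2. Inhibition taken as loss of Gli1-driven luciferase luminescence.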

[3] = qHTS assay to identify small molecule agonists of the sonic hedgehog signaling (Shh) pathway - cell viability counter screen (AID 1259366); also: nearly all actives have a fitted effect of over 50% in size
Summary of the method: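 Viability measured fluorometrically (CellTiter-Fluor, 1hr, 37C) in 3T3 Gli1-Luc reporter cells after 23hr compound exposure within a 24hr incubation at 37C/5% CO2.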

[4] = qHTS assay to identify small molecule agonists of the sonic hedgehog signaling (Shh) pathway (AID 1259368; calls by dose curve; also: nearly all actives have a fitted effect of over 15% in size)
Summary of the method: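 Luminescence was read after 30 min at room temperature with luciferase reagent. Before that, 3T3Gli1-Luc cells (NIH/3T3 clone, stable Gli1-Luc reporter; 2,000/well) were exposed to compounds for 24 hr at 37C, 5% CO2, compounds being added 4 hr post-plating.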

[5] = biological target: Androgen receptor (Homo sapiens) (UniProt P10275); assay: qHTS assay to identify small molecule antagonists of the androgen receptor (AR) signaling pathway using the MDA cell line in the presence of 0.5 nM R1881 (AID 1259243); also: nearly all actives have a fitted effect of over 50% in size
Summary of the method: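 Luminescent reporter readout (ONE-Glo, 30 min, room temperature) after 16 hr co-treatment of MDA-kb2 cells with test compounds and 0.5 nM R1881 final, at 37C without CO2. The MMTV-driven luciferase responds to both AR and GR.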

[6] = qHTS assay to identify small molecule antagonists of the sonic hedgehog signaling (Shh) pathway - cell viability counter screen (AID 1259367); also: nearly all actives have a fitted effect of over 55% in size
Summary of the method: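 Cytotoxicity was assessed in parallel with Shh reporter activity by measuring live-cell protease fluorescence (CellTiter-Fluor) in NIH/3T3 cells stably carrying Gli1-Luc, treated with compound under conditioned medium stimulation for 23 hr plus 1 hr reagent incubation.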
Potency is read from the fitted curve at half-maximal effect; tags tell the direction and shape of the fitted curve.

Sequence of UniProt P10275 (P10275 whole entry, looked up): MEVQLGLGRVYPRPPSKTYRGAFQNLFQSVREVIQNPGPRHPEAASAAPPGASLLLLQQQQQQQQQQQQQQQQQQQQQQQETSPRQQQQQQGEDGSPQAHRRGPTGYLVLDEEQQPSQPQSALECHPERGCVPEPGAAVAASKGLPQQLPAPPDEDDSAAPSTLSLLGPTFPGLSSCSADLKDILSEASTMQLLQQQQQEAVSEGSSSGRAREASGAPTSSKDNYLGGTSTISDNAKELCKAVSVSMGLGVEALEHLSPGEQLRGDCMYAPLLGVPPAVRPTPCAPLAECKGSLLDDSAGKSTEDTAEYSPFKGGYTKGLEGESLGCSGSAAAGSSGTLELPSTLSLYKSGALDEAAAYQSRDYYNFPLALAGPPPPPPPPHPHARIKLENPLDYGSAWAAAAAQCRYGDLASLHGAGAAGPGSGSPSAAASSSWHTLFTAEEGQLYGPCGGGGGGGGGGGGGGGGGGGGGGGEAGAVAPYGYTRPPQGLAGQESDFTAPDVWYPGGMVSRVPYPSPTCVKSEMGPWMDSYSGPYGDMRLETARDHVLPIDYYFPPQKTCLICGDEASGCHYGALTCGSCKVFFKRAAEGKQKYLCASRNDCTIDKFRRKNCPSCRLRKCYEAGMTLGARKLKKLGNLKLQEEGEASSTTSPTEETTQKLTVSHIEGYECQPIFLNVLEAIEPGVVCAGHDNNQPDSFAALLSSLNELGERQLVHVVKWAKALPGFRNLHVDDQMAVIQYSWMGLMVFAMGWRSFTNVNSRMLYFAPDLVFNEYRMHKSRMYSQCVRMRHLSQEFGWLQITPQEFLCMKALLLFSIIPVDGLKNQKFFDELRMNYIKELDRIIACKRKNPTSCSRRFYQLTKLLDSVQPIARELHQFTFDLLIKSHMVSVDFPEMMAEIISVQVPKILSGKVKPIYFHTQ

With Brc1cc2ccccc2c2ccccc12 the Potency [1] was inconclusive: 43.6 µM [cytotoxic, partial curve, poor fit] and the Potency [2] was “inactive”.

For O=C(OC(=O)c1ccccc1)c1ccccc1, the Potency [1] was “inactive” and the Potency [2] was “inactive”.

For Cc1c2oc3c(C)ccc(C(=O)N[C@@H]4C(=O)N[C@H](C(C)C)C(=O)N5CCC[C@H]5C(=O)N(C)CC(=O)N(C)[C@@H](C(C)C)C(=O)O[C@@H]4C)c3nc-2c(C(=O)N[C@@H]2C(=O)N[C@H](C(C)C)C(=O)N3CCC[C@H]3C(=O)N(C)CC(=O)N(C)[C@@H](C(C)C)C(=O)O[C@@H]2C)c(N)c1=O (I: T[dV]P[Sar][NMeV] / II: T[dV]P[Sar][NMeV]; ester I:1-I:C, II:1-II:C; linker I:N-II:N via Actinocin(9to1)), the Potency [1] was inconclusive: 16.8 µM [cytotoxic] and inconclusive: 2.66 µM [cytotoxic, partial curve, poor fit], the Potency [3] was active: 42.1 nM and active: 168 nM and the Potency [4] was inconclusive: 0.0042 µM [activator, full curve, poor fit]. For the same compound, the Potency [2] was inconclusive: 0.0188 µM [inhibitor, partial curve, poor fit].

With Cc1cc2c(OCC(CNC(C)(C)C)OC(=O)c3ccccc3)cccc2[nH]1 (configuration not stated) the Potency [1] was inconclusive: 29.8 µM [cytotoxic, partial curve, poor fit] and the Potency [2] was active: 8.41 µM.

With CCc1ccc(C(c2ccc(CC)cc2)C(Cl)Cl)cc1 the Potency [5] was inconclusive: 24.3 µM [inhibitor, partial curve].

For Nc1cc(S(=O)(=O)O)cc2cc(S(=O)(=O)O)cc(O)c12, the Potency [1] was inconclusive: 34.4 µM [cytotoxic, partial curve], the Potency [3] was inconclusive: 30.6 µM [cytotoxic, partial curve] and the Potency [6] was inconclusive: 43.1 µM [cytotoxic, partial curve] and inconclusive: 48.6 µM [cytotoxic, partial curve]. The Potency [2] was inconclusive: 15.4 µM [inhibitor, full curve].

For O=C1Cc2ccccc2N1c1c(Cl)cccc1Cl, the Potency [5] was active: 24.3 µM.

For O=[N+]([O-])c1cc(C2CCCCC2)c(O)c([N+](=O)[O-])c1, the Potency [1] was active: 15.3 µM and the Potency [6] was active: 24.3 µM.

For O=C(CCN1CCC(c2ccccc2)C1)c1ccc2c(c1)OCCO2 (configuration not stated), the Potency [1] was inconclusive: 29.8 µM [cytotoxic, partial curve, poor fit] and the Potency [6] was inconclusive: 33.5 µM [cytotoxic].

In the case of CCc1nc(N)nc(N)c1-c1ccc(Cl)cc1, the Potency [1] is reported as inconclusive: 55.3 µM [cytotoxic, partial curve], the Potency [3] is reported as “inactive” and the Potency [2] is reported as inconclusive: 23.7 µM [inhibitor].

For NCCS(=O)(=O)O, the Potency [1] was inconclusive: 28.4 µM [cytotoxic, partial curve, poor fit], the Potency [3] was inconclusive: 31.8 µM [cytotoxic, partial curve] and the Potency [6] was active: 22.5 µM. For the same compound, the Potency [2] was inconclusive: 8.97 µM [inhibitor, full curve].

In the case of Oc1c(I)cc(Cl)c2cccnc12, the Potency [1] is reported as inconclusive: 48.5 µM [cytotoxic, partial curve, poor fit] and inconclusive: 26.6 µM [cytotoxic, partial curve, poor fit], the Potency [6] is reported as inconclusive: 15.3 µM [cytotoxic, single point] and the Potency [4] is reported as inconclusive: 33.5 µM [activator, single point]. The Potency [2] was inconclusive: 13.7 µM [inhibitor, single point] and inconclusive: 10.6 µM [inhibitor, partial curve, poor fit].

With c1ccc(C[n+]2cccc3ccccc32)cc1 the Potency [1] was inconclusive: 48.6 µM [cytotoxic, partial curve, poor fit], the Potency [6] was inconclusive: 43.3 µM [rising, partial curve] and the Potency [2] was inconclusive: 21.7 µM [inhibitor, full curve, poor fit].

In the case of Cc1ccc(C(=O)c2cc(O)c(O)c([N+](=O)[O-])c2)cc1, the Potency [1] is reported as active: 54.5 µM and inconclusive: 26.6 µM [cytotoxic, partial curve], the Potency [3] is reported as inconclusive: 77 µM [cytotoxic, single point] and the Potency [2] is reported as inconclusive: 33.5 µM [inhibitor].

— PubChem BioAssay (Tox21)
